Laboratory results: the supplement of paper PMC11417369
Some of the results follow.

test system: PF3D7_0420300 AP2 domain 1 (GST-tagged); assay: gcPBM binding intensity (ln(normalized median fluorescence intensity)); higher = stronger DNA binding
How it was run: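 Alexa488 anti-GST antibody, scanned at 488 nm, detected GST-tagged P. falciparum DNA-binding domains that had been expressed in E. coli and incubated for 1 h on an Agilent 4 × 180k array. The array carried primer-extended double-stranded 36-bp intergenic genomic probes and negative controls. Binding intensity is the highest Masliner-normalised natural-log median intensity across replicate spots of either orientation of each probe.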

Going from “TAAAATAATTCGTAACGTACATATGTAATATAATAT [XGTACX_site6126]” to “AAAAAAAAAAAACACACACACACACTAATATATAAA [CACACA_site8302]”, the “gcPBM binding intensity (ln)” value rises from 9.39 to 10.2.

“TTTTTTTTGTATTTTTCACACACTCTCTATCTCTCT [CACACA_site8655]” and TGAAAATAATTATAGGTGCATAAACATACGGATCTT are the same in “gcPBM binding intensity (ln)” value: 9.55 for the first, 9.55 for the second.

Going from “TATAAAAATAATATTACACACATGTAAAATGCCCGT [CACACA_site7522]” to “ATATATTAATAATAAATTAAAAGGAGTAACATTTTC [CACACA_negctrl_site320]”, the “gcPBM binding intensity (ln)” value falls from 9.56 to 9.22.

First: ATATTTTATTTTCCATGTACACAAAAAAAAAAAAAA [XGTACX_site8327]
Second: TTTTTTTTTTTCTTTGCACACAGATAACTTGAAATT [CACACA_site2184]
The “gcPBM binding intensity (ln)” value of the first is lower: 8.7 for the first, 9.3 for the second.

Going from “AATTTAATTATGGTAACACACAATAAAAAAAAATCT [CACACA_site568]” to “AGGTTAAAAATAAATACACACATTTTATGGGTGTAT [CACACA_site4702]”, the “gcPBM binding intensity (ln)” value falls from 9.56 to 9.48.

Going from “AAGAAAATAAAGGATATGAAAAATAAAAAAAAGGAG [TGCATGCA_negctrl_site265]” to “ATATTATTAATATATTGTACTTTTTTTTTTTTATTT [XGTACX_site496]”, the “gcPBM binding intensity (ln)” value falls from 9.83 to 9.48.

First: ATATGTATTTAATTCACACAAAAATATGTTCATGAA [CACACA_site5223]
Second: CACATTATGTATCATACACACAAATAAATATATAAT [CACACA_site4505]
The “gcPBM binding intensity (ln)” value of the first is lower: 9.09 for the first, 9.7 for the second.

Compared with “TTTTTTTTTTGCACGTGTACATAAAAATATATATAT [XGTACX_site3116]”, “AAAATATATTCAACTTGTACATATATATATATATAT [XGTACX_site7629]” is higher in “gcPBM binding intensity (ln)” value: 9.11 for the first, 9.13 for the second.

First: TTTTTGTAATGACACACACACAAACAGAAAAAATAA [CACACA_site7062]
Second: TTATATATTTTGATTGCACACAGAATTTAAATCATG [CACACA_site8735]
The “gcPBM binding intensity (ln)” value of the first is higher: 9.9 for the first, 9.3 for the second.

Going from “ATATTTAAGATTTAATCACACACATATATATTATAT [CACACA_site8946]” to “ATAAAATAAAGGAAAAATATTAAGTTTTAAGAAAAT [CACACA_negctrl_site1066]”, the “gcPBM binding intensity (ln)” value falls from 9.5 to 9.14.

Going from “ATATATGTGCTAAAATGTACATAGTATAATATATTT [XGTACX_site1949]” to “TTTAATCATTTTAGCTTACACACAAAATTTTGTTAT [CACACA_site2938]”, the “gcPBM binding intensity (ln)” value rises from 9.36 to 9.74.

First: TTCTCACTTTTAAATTTTATTCAAAAATAAGGAAAG [XGTACX_negctrl_site444]
Second: ATATATATATATAAATGTACATATGTATAATTCATA [XGTACX_site6679]
The “gcPBM binding intensity (ln)” value of the first is lower: 8.55 for the first, 9.28 for the second.

First: ATTTCGTTCTTTTATGCACACTCAACATATAAATTA [CACACA_site8322]
Second: GAGAGTAAAACAAATATACACACCATAAAGTTATAA [CACACA_site1686]
The “gcPBM binding intensity (ln)” value of the first is higher: 9.75 for the first, 9.49 for the second.

Compared with “TATTTTTCCATATGCACACACACCGTATCTAGAATA [CACACA_site6654]”, “TACATAAACATTTATACACACATTATGTATACATAT [CACACA_site405]” is lower in “gcPBM binding intensity (ln)” value: 9.93 for the first, 9.61 for the second.

Compared with “GGATTTTTCGAATCATGTACATATTTAATTAAAAAA [XGTACX_site7939]”, “TAGAATGTATGTAGTGCACACCTCTATAATATATTA [CACACA_site1873]” is higher in “gcPBM binding intensity (ln)” value: 8.87 for the first, 9.4 for the second.

Compared with “AACTTTGGCAAACACACACACACACCCACACCCACA [CACACA_site588]”, “CCGTTGAACATATATGCACACACATAAAATAAAAAA [CACACA_site8761]” is lower in “gcPBM binding intensity (ln)” value: 10.3 for the first, 9.52 for the second.

Compared with “ATATTTTTTTTTTTTTGTACATATATCATTATATAT [XGTACX_site866]”, “TGGTTACTGTCATTAGTTATTTCTTGTTGACAATTA [CACACA_negctrl_site416]” is lower in “gcPBM binding intensity (ln)” value: 9.4 for the first, 9.32 for the second.

First: TTTTTGTCTGCATACGCACACACGTGTACCATCTTA [CACACA_site1173]
Second: TAGATACATAAAAGTGGTACATATATATATATATAT [XGTACX_site6263]
The “gcPBM binding intensity (ln)” value of the first is higher: 9.88 for the first, 9.33 for the second.

Compared with “AATATTTATATTTACACACACATAATACCTATATGT [CACACA_site6167]”, “TGGAAATTCTCAGGAGTGCATATTTGCAGTTTACGT [GTGCAC_site9768]” is lower in “gcPBM binding intensity (ln)” value: 9.91 for the first, 9.13 for the second.

Going from “ATGGTTAAAAAAAGCATACACACTATCCTCTTTGCT [CACACA_site2552]” to “TTTGTTGACGGACACACACACATACAGATATATATA [CACACA_site5292]”, the “gcPBM binding intensity (ln)” value rises from 9.44 to 9.89.

First: ATAATAAATTATTATGTACACACATAATAGTATATA [CACACA_site8538]
Second: ATTATTTTTAAAAATTGTACAGTATAAGAGAGAAAT [XGTACX_site7094]
The “gcPBM binding intensity (ln)” value of the first is higher: 9.39 for the first, 9.35 for the second.

Going from “TATTGTAAAAAGATTACACACGTTCTATATACTTTT [CACACA_site5379]” to “AATAAAAAAATATATTGTACTAATAATTATATGTTT [XGTACX_site2246]”, the “gcPBM binding intensity (ln)” value falls from 9.48 to 9.09.

First: TTAATGGCAAAATAGGCACACACACCGATACATATA [CACACA_site8263]
Second: ACAGTAGCCAGTAACTGTACGGATTGTAGAGATCAG [XGTACX_site4873]
The “gcPBM binding intensity (ln)” value of the first is higher: 9.91 for the first, 9.24 for the second.

Compared with “ATAATATTTAGGTGTGCACACAAACATACATATATA [CACACA_site9120]”, “AAAAAATCACAACACACACACACACTAATAAAAAAA [CACACA_site8410]” is higher in “gcPBM binding intensity (ln)” value: 9.95 for the first, 10.2 for the second.

Compared with “TAAATATTATTATATACATGCACTTACAACTTTTTT [TGCATGCA_site877]”, “AAATCACATAAAACATAATCAAATGAAATATAATCA [CACACA_negctrl_site123]” is higher in “gcPBM binding intensity (ln)” value: 9.28 for the first, 9.31 for the second.

Going from “ACTGTAAATTTATTCGGTACACATATAAATAATATT [XGTACX_site7346]” to “ATAATAATAAAGTATGCATGCATATAATATAATATA [TGCATGCA_site796]”, the “gcPBM binding intensity (ln)” value rises from 9.31 to 9.35.

Going from “TTTTTATTGCAATACTTATATTTTTTTATGATTAAA [TGCATGCA_negctrl_site147]” to “ATGATAATTTTTTTCTCACACACAAATATTTTAATC [CACACA_site3665]”, the “gcPBM binding intensity (ln)” value rises from 9.04 to 9.7.

Compared with “AAAGATTCTTTGAATTGTACAAATATATTTACTCAC [XGTACX_site8772]”, “CAATAATATATATATTGTACATTTTTTTTTATTATT [XGTACX_site3149]” is higher in “gcPBM binding intensity (ln)” value: 9.11 for the first, 9.21 for the second.

Compared with “ATGTTCCATTTTACTTGTACTAATTTTTTCCTATCT [XGTACX_site6474]”, “TATATTATTTTCTTTTGTACACATATATATCAGTGT [XGTACX_site664]” is lower in “gcPBM binding intensity (ln)” value: 9.64 for the first, 9.34 for the second.

Going from “ACACATAATATAAAGGTGCTATATTGTATTCATTTT [GTGCAC_site9457]” to “TGCAAAAAAAAAAAAAAAAAATATATGGAAATATAT [GTGCAC_negctrl_site257]”, the “gcPBM binding intensity (ln)” value falls from 9.46 to 8.96.

Going from “TTTTCATACACTGCTAGTATATACTACCACTGACAT [GTGCAC_negctrl_site514]” to “AAACATATATTAAGCACACACAAACAAAAAAACAAA [CACACA_site2549]”, the “gcPBM binding intensity (ln)” value rises from 9.42 to 10.1.

Compared with “ACATTGAACAAAATAGTAAGCACATATATATATATA [GTGCAC_negctrl_site679]”, “TGATTCATTGATAAGGGTACATTTATAATTATGATA [XGTACX_site6319]” is lower in “gcPBM binding intensity (ln)” value: 9.37 for the first, 9.02 for the second.

Compared with “ACGTATCAATTTATTGGTACACATAAATATATATAT [XGTACX_site5556]”, “TACCAAAAAAAAAAAATAATAATAAAAAAAAAAAAA [TGCATGCA_negctrl_site11]” is lower in “gcPBM binding intensity (ln)” value: 9.2 for the first, 9.14 for the second.

Compared with “AACGAAGCATAAAATGTTATGTATATATATAAATAT [TGCATGCA_negctrl_site304]”, “ATCATTTTGTGTTCAAGTACATAATGTTTTACACAA [XGTACX_site3565]” is lower in “gcPBM binding intensity (ln)” value: 9.33 for the first, 9.24 for the second.

Going from “CATACATTATAAGATACATGCATATATCTGAACATA [TGCATGCA_site797]” to “ATGTGGAAATAGAGCACACATATATATAATATATAT [CACACA_site884]”, the “gcPBM binding intensity (ln)” value rises from 9.31 to 9.46.

Compared with “TATTCATTAAACCATACACACATAATTTTTTTATAA [CACACA_site4618]”, “ATATATTATATAAAAAGTACTAAAATAGTAAGATGT [XGTACX_site7493]” is higher in “gcPBM binding intensity (ln)” value: 9.46 for the first, 9.65 for the second.

Going from “AATGATTTTAAATGAACATAATTTATATTCATAACA [GTGCAC_negctrl_site256]” to “GTGTGCCAAATTAGCACACACATATATACATGAATT [CACACA_site7346]”, the “gcPBM binding intensity (ln)” value rises from 8.94 to 9.58.

First: AATTTTTGTTACAAGATGCACTTAATTTTTCTAAAT
Second: AATAAAAATTCAAGTTGTACTTTTTTAAAAATACAA [XGTACX_site3949]
The “gcPBM binding intensity (ln)” value of the first is higher: 9.07 for the first, 8.89 for the second.

Going from “AAAATGAATAAAAATACACACATATATGTTATTCTC [CACACA_site2671]” to “AAATTGAGACAACAGGTGCATATAAATATACAGTGT [GTGCAC_site9634]”, the “gcPBM binding intensity (ln)” value rises from 9.45 to 9.63.

First: CCAACATGCAGACGCACACACAAAAAAAGCATGCAT [CACACA_site74]
Second: AATAATATATATATTACACACTAATTGTATTATATA [CACACA_site448]
The “gcPBM binding intensity (ln)” value of the first is higher: 9.57 for the first, 9.37 for the second.

Compared with “TAACAATATCTAGATACACACACATATCTCTCAATC [CACACA_site8122]”, “TTAATACCCGGACACACACACACAAAATAAAATACA [CACACA_site4296]” is higher in “gcPBM binding intensity (ln)” value: 9.78 for the first, 10.2 for the second.

Going from “ATTTATTTATTTAGCTGTACATTTATACAGAACGAT [XGTACX_site3336]” to “TAACAATAACTTTATACACACATAATATAAATATAT [CACACA_site7635]”, the “gcPBM binding intensity (ln)” value rises from 9.1 to 9.61.

Going from “TAAAATTTTAACAAAAAAAAAAAAAAAAAAAGAAAA [CACACA_negctrl_site1335]” to “TACGTATTATAAATATGTACATATAATATGTATATA [XGTACX_site468]”, the “gcPBM binding intensity (ln)” value rises from 9.04 to 9.09.

Going from “TATATCATCATGTATGTACACACATACATATATTAT [CACACA_site8387]” to “ATAACAAAATAATAATGTACGTATAAATATAATTTA [XGTACX_site6049]”, the “gcPBM binding intensity (ln)” value falls from 9.56 to 9.42.
